“And” between values parts separate entries of the source, which are not always exact repeats. Equal entries are not always repeated. Screen size: about 270,000 compounds; about 5,800 (2.1%) were called active. The inconclusive results got no clear call from the source; some entries with a clear call stand among them for comparison. Calls come from the whole dose curve; as a rule, active = well fitted inhibition curve with a large enough effect; inconclusive = small, poorly fitted or top-dose-only effect; inactive = flat fitted curve, though single readings scatter. Potencies of inconclusive entries are doubtful fits and often do not repeat.
Each molecule was assayed against Microtubule-associated protein tau (Homo sapiens) (UniProt P10636) (assay: qHTS for Inhibitors of Tau Fibril Formation, Thioflavin T Binding). Details: recombinant tau K18 P301L (four-repeat tau fragment), heparin-induced fibrillization, ThT fluorescence; series mostly up to 57.4 µM; activity, negative = inhibition: at the top concentration.
UniProt P10636, sequence (P10636 whole entry, looked up, the tested form may be a part): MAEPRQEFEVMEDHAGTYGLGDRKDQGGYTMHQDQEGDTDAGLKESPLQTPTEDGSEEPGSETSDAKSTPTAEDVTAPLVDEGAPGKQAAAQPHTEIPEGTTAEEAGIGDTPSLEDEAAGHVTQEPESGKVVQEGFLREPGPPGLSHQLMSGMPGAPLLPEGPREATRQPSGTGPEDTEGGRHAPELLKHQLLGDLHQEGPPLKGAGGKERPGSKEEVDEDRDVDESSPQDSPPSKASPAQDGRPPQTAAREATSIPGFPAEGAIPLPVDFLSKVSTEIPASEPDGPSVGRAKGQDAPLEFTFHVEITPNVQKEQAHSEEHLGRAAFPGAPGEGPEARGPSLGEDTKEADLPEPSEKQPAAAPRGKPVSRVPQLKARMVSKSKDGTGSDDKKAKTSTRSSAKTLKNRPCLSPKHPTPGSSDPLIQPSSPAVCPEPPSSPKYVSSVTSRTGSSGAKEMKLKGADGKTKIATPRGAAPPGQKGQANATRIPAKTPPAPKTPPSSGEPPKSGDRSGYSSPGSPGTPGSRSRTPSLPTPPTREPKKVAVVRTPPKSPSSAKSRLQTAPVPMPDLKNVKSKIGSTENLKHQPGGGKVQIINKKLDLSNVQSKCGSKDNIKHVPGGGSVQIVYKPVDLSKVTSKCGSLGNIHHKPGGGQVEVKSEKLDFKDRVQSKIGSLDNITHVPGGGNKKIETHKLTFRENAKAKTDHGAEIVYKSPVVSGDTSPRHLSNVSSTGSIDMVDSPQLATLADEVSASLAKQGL
Method in brief: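 In this qHTS, human K18 P301L tau is incubated with compound and heparin for 6 hr at 37 C, and Thioflavin T fluorescence then reports fibril load.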
In the case of `CC/C(=N/NC(=O)c1ccc(Br)cc1)c1ccc(OCCN2CCOCC2)cc1`, the Potency is reported as inconclusive: 3.55 µM [inhibitor, full curve, poor fit]. `O=C(Nc1cc2c3c(c1)C1CCCC1CN3CC1CCCC21)c1ccc([N+](=O)[O-])cc1` (centres undefined) was tested, and the Potency was inconclusive: 10 µM [inhibitor, partial curve]. With `O=C(NNc1ccc([N+](=O)[O-])cc1)c1ccccc1Cl` the “activity, negative = inhibition” value was inactive: 11.6%. `Cc1nc(N2CCCC2)ncc1C(=O)NCc1ccc(Cl)cc1` was tested, and the “activity, negative = inhibition” value was inactive: -3.09%. `CCn1c(NN)nc2sc3c(c2c1=O)CCC3` was tested, and the Potency was inconclusive: 17.8 µM [inhibitor, partial curve]. In the case of `Cc1cc(NS(=O)(=O)c2ccc(NC(=O)Nc3ccc4c(c3)OCO4)cc2)no1`, the “activity, negative = inhibition” value is reported as inactive: -14.9%. `Cc1ccc(-c2cnc3c(Cl)c(C)nn3c2)cc1` was tested, and the Potency was inconclusive: 3.16 µM [inhibitor, partial curve]. `CCCCc1nn2c(=O)cc(CN(CC)c3ccccc3)nc2s1` was tested, and the Potency was inconclusive: 35.5 µM [inhibitor, single point]. With `O=C(CN1CCCCCCC1)N/N=C/c1ccccc1F` the “activity, negative = inhibition” value was inactive: 2.17%. `Cc1ccc(CN2C(=O)C(O)(CC(=O)c3ccc(C)cc3)c3ccccc32)cc1` (centres undefined) was tested, and the Potency was inconclusive: 35.5 µM [inhibitor, single point]. In the case of `CCCCCC#CCC#CCC#CCC#CCCCC(=O)O`, the Potency is reported as inconclusive: 28.2 µM [inhibitor, single point] and inconclusive: 20 µM [inhibitor, partial curve, poor fit]. In the case of `O=C(/C=C/c1ccc2c(c1)OCCCO2)c1ccccc1O`, the Potency is reported as inconclusive: 28.2 µM [inhibitor, partial curve]. `Cn1cnnc1SCC(=O)c1cc2ccccc2oc1=O` was tested, and the Potency was active: 28.2 µM. With `CCOC(=O)C[n+]1c(C)sc2ccc(OC)cc21` the Potency was active: 28.2 µM. `CC1=C(C(=O)O)N2C(=O)C(NC(=O)C(N)c3ccc(O)cc3)C2SC1` (centres undefined) was tested, and the Potency was active: 28.2 µM. With `CN(C)c1ccc(C=Nc2ccccc2C(N)=O)cc1` the Potency was inconclusive: 12.6 µM [inhibitor, partial curve]. `Cc1cccn2c(=O)c(/C=C(\C#N)C(=O)NCc3ccco3)c(N3CCCCC3)nc12` was tested, and the Potency was inconclusive: 12.6 µM [inhibitor, partial curve]. In the case of `COc1ccc(C(=O)c2cnc3ccc(C)cc3c2S(=O)(=O)c2ccccc2)cc1`, the “activity, negative = inhibition” value is reported as inactive: -17.7%. `CC(C)Oc1cccc(C(=O)C2CCCN(Cc3cnn(C(C)C)c3)C2)c1` (centres undefined) was tested, and the Potency was inconclusive: 0.398 µM [inhibitor, full curve]. In the case of `Cc1sc2nc(N)sc2c1C`, the Potency is reported as inconclusive: 20 µM [inhibitor, partial curve, poor fit]. `O=C(O/N=C\c1ccc(N2CCCCC2)c([N+](=O)[O-])c1)c1c(F)cccc1F` was tested, and the Potency was inconclusive: 10 µM [inhibitor, partial curve]. For `C/C(=N\NC(=O)c1ccc(CSc2nc(C)cc(C)n2)cc1)c1ccco1`, the Potency was inconclusive: 39.8 µM [inhibitor, single point]. With `Fc1cccc(Cl)c1CNC(c1ccccc1)c1ccccc1` the “activity, negative = inhibition” value was inactive: 3.81%. For `CCC(C)Nc1nc(-c2cccc(OC)c2O)nc2ccccc12` (centres undefined), the Potency was inconclusive: 28.2 µM [inhibitor, partial curve]. In the case of `CCNC(=O)C1CCN(c2nc3ccccc3nc2C(F)(F)F)CC1`, the “activity, negative = inhibition” value is reported as inactive: 10.7%. In the case of `CN1CCN(c2oc(COc3ccc(-c4ccccc4)cc3)nc2C#N)CC1`, the Potency is reported as inconclusive: 25.1 µM [inhibitor, single point]. `CCc1ccc2occ(CC(=O)Nc3nnc(C)s3)c2c1` was tested, and the “activity, negative = inhibition” value was inactive: 4.22%. With `Cc1nc(Nc2nc3ccccc3o2)nc2c1CCC2` the Potency was inconclusive: 15.8 µM [inhibitor, partial curve]. With `CCOc1ccc(C(=O)N2CCc3cc(OC)c(OC)cc3C2)cc1OCC` the Potency was inconclusive: 10 µM [inhibitor, partial curve]. In the case of `CCN(CC(=O)Nc1ccc(C(=O)OC)cc1)Cc1ccccc1`, the Potency is reported as inconclusive: 14.1 µM [activator, partial curve, poor fit]. In the case of `CCOc1ccc(C(=O)NC(=S)Nc2ccc(N3CCOCC3)c(Cl)c2)cc1[N+](=O)[O-]`, the Potency is reported as inconclusive: 3.55 µM [inhibitor, full curve]. With `C=C1C(=O)C=C[C@]2(C)C[C@@H]3OC(=O)[C@](C)(O)[C@H]3C[C@@H]12` the Potency was inconclusive: 28.2 µM [inhibitor, partial curve]. In the case of `O=Cc1cccc(OC(=O)c2ccc(Cl)cc2Cl)c1`, the Potency is reported as inconclusive: 31.6 µM [inhibitor, partial curve]. With `FC(F)Sc1ccc(N=C2NN=C(c3ccc4c(c3)OCCO4)CS2)cc1` the Potency was inconclusive: 17.8 µM [inhibitor, partial curve]. With `CCOc1ccc(-c2nnc(SCC(=O)NCc3ccc(Cl)cc3)o2)cc1` the “activity, negative = inhibition” value was inactive: 5.07%. In the case of `COc1ccc(CCNc2oc(-c3ccc(C)cc3)nc2C#N)cc1OC`, the Potency is reported as inconclusive: 2.82 µM [inhibitor, single point]. In the case of `CCn1c(C)c(C(C)=O)c(N2CCN(c3ccc(OC)cc3)CC2)nc1=S`, the Potency is reported as active: 28.2 µM. `Cc1nc(NS(=O)(=O)c2ccccc2C)c2c3c(sc2n1)CCC3` was tested, and the Potency was inconclusive: 0.631 µM [activator, single point]. For `CCCCCCC1=Cc2cc(OC)c(OC)cc2C(C(C(C)=O)C(=O)OC)O1` (centres undefined), the activity, negative = inhibition was inactive: -14.4% [at 11.5 µM]. With `Cc1sc2ncnc(SCC(=O)N3CCCC3=O)c2c1C` the “activity, negative = inhibition” value was inactive: -12.9%. In the case of `Cc1cccc(NC(=O)c2ccc(NCC3CCCO3)c([N+](=O)[O-])c2)c1` (centres undefined), the Potency is reported as inconclusive: 3.55 µM [inhibitor, full curve]. For `CCN(CC)c1ccc(/C=C2\SC(=O)N(C(C)C)C2=O)o1`, the Potency was active: 25.1 µM. For `Cc1nc(-n2nnc3cc(C)c(C)cc32)c2c3c(sc2n1)CCCC3`, the Potency was inconclusive: 31.6 µM [inhibitor, partial curve, poor fit]. With `COc1ccc(NC(=S)NC(=O)/C=C/c2cccs2)cc1` the Potency was inconclusive: 3.55 µM [inhibitor, partial curve, poor fit]. In the case of `CC(=O)Nc1nonc1-c1nc2ccccc2n1CCC(C)C`, the Potency is reported as inconclusive: 7.94 µM [inhibitor, full curve]. `Cc1ccc(N(C(=O)Cn2nnc3ccccc32)C(C(=O)NCc2ccco2)c2ccc(C)o2)cc1` (centres undefined) was tested, and the Potency was inconclusive: 17.8 µM [inhibitor, single point]. `c1ccc2c(-n3ccnc3)nc(-c3ccoc3)nc2c1` was tested, and the Potency was inconclusive: 28.2 µM [inhibitor, partial curve, poor fit]. For `O=C(OCC(=O)N1CCN(C(=O)c2ccco2)CC1)c1cc(-c2ccco2)nc2ccccc12`, the Potency was inconclusive: 14.1 µM [inhibitor, partial curve]. `c1ccc2nc(-c3ccc(N4CCOCC4)cc3)ccc2c1` was tested, and the Potency was inconclusive: 1.58 µM [inhibitor, full curve]. `O=C(NCc1ccncc1)c1ccc(N2CCCC2)c([N+](=O)[O-])c1` was tested, and the Potency was inconclusive: 25.1 µM [inhibitor, single point]. `CCOC(=O)c1sc(NC(=O)c2cc3nc(-c4ccc(Br)cc4)cc(C(F)(F)F)n3n2)c(C(=O)OCC)c1C` was tested, and the “activity, negative = inhibition” value was inactive: 10%. With `Cc1ccc(C(C(=O)Nc2ccc3c(c2)OCO3)N(C)C(=O)/C=C\c2ccc3c(c2)OCO3)cc1` (centres undefined) the Potency was inconclusive: 10 µM [inhibitor, partial curve, poor fit]. In the case of `Cc1nc2cc(C(=O)O)ccc2n1-c1ccc(C(C)C)cc1`, the “activity, negative = inhibition” value is reported as inactive: -12.9%. In the case of `CCOc1cc(NC(=O)C2CC2)c(OCC)cc1NC(=O)c1ccccn1`, the Potency is reported as inconclusive: 39.8 µM [inhibitor, single point]. For `CC1=C[C@H]2Cc3cc(C)cc(C)c3S(=O)(=O)[C@@H]2C=C1`, the Potency was inconclusive: 4.47 µM [inhibitor, partial curve]. For `COc1ccc(-c2ccc3c(N)c(C(=O)Nc4cccc(C)c4)sc3n2)cc1`, the “activity, negative = inhibition” value was inactive: -22%. With `Cc1nc2sc(C(=O)Nc3ccccc3)c(N)c2c(C)c1[N+](=O)[O-]` the Potency was inconclusive: 0.199 µM [inhibitor, full curve]. In the case of `N#Cc1nc(Cc2cccc3ccccc23)oc1NCc1ccco1`, the Potency is reported as inconclusive: 31.6 µM [inhibitor, single point]. In the case of `COc1ccccc1Nc1nc(N)nc(CSC(=S)N2CCN(c3ccccc3)CC2)n1`, the “activity, negative = inhibition” value is reported as inactive: -12.8%. For `COCC(=O)Nc1cc(=O)n(C)c(=O)n1C`, the Potency was inconclusive: 5.01 µM [activator, full curve, poor fit]. For `Cc1ccc(C)n1-c1nnc(N2CCCC(C(=O)NCc3ccccc3)C2)s1` (centres undefined), the Potency was inconclusive: 10 µM [inhibitor, partial curve, poor fit]. For `Cc1ccc(C)c(NC(=S)c2ccc3ccccc3n2)c1`, the Potency was inconclusive: 15.8 µM [inhibitor, partial curve]. For `CCc1cccc(NC(=O)CN2C=NS(=O)(=O)c3ccccc32)c1`, the “activity, negative = inhibition” value was inactive: -12.3%. In the case of `COc1ccc(CCC(=O)NCCc2cn3c(C)csc3n2)cc1`, the Potency is reported as inconclusive: 3.55 µM [inhibitor, full curve]. For `COc1ccc(N=C2NN=C(c3ccc4c(c3)OCCO4)CS2)cc1`, the Potency was active: 7.08 µM. `CCOc1ccc(-c2nc(CCl)cs2)cc1` was tested, and the Potency was inconclusive: 5.01 µM [inhibitor, partial curve, poor fit]. For `CC[C@@H]1C(c2ccc(F)cc2)=NN(c2ccccc2)[C@H]1C(=O)N1CCOC1=O`, the “activity, negative = inhibition” value was inactive: -10.2% [at 81.4 µM]. For `COc1ccc(-c2cc3c(nn2)-c2ccccc2C3=O)cc1`, the Potency was inconclusive: 2 µM [inhibitor, full curve]. For `COc1ccc(OC)c(CNC(=O)CN2C(=O)CCn3nc(-c4cn(C)c5ccccc45)cc32)c1`, the Potency was inconclusive: 22.4 µM [inhibitor, single point].
% is set by controls: 0 for no effect and ±100 for the full control effect; potency is the fitted concentration of half-maximal effect; tags give direction and shape of the fitted curve.
Note: nearly all actives have a fitted effect of over 55% in size.
